Tested on: oligomeric Aβ1-42 (biotin-oAβ1-42 bait)
Conditions: enrichment relative to biotin-only saturated negative control matrix; human frontal lobe digitonin extract; TMT, three biological replicates; pH 8.0, 4°C overnight

B1: Acetyl-CoA acetyltransferase, mitochondrial: human brain protein (protein, UniProt P24752 34-427, looked up)
Acetyl-CoA acetyltransferase, …: VSKPTLKEVVIVSATRTPIGSFLGSLSLLPATKLGSIAIQGAIEKAGIPKEEVKEAYMGNVLQGGEGQAPTRQAVLGAGLPISTPCTTINKVCASGMKAIMMASQSLMCGHQDVMVAGGMESMSNVPYVMNRGSTPYGGVKLEDLIVKDGLTDVYNKIHMGSCAENTAKKLNIARNEQDAYAINSYTRSKAAWEAGKFGNEVIPVTVTVKGQPDVVVKEDEEYKRVDFSKVPKLKTVFQKENGTVTAANASTLNDGAAALVLMTADAAKRLNVTPLARIVAFADAAVEPIDFPIAPVYAASMVLKDVGLKKEDIAMWEVNEAFSLVVLANIKMLEIDPQKVNINGGAVSLGHPIGMSGARIVGHLTHALKQGEYGLASICNGGGGASAMLIQKL
Experiment I B-oAβ1-42/B Ratio: 4.81

B2: Cofilin-2: human brain protein (protein, UniProt Q9Y281 2-166, looked up)
Cofilin-2: ASGVTVNDEVIKVFNDMKVRKSSTQEEIKKRKKAVLFCLSDDKRQIIVEEAKQILVGDIGDTVEDPYTSFVKLLPLNDCRYALYDATYETKESKKEDLVFIFWAPESAPLKSKMIYASSKDAIKKKFTGIKHEWQVNGLDDIKDRSTLGEKLGGNVVVSLEGKPL
Experiment I B-oAβ1-42/B Ratio: 4.79

B3: Peroxiredoxin-5, mitochondrial: human brain protein (protein, UniProt P30044 53-214, looked up)
Peroxiredoxin-5, mitochondrial: MAPIKVGDAIPAVEVFEGEPGNKVNLAELFKGKKGVLFGVPGAFTPGCSKTHLPGFVEQAEALKAKGVQVVACLSVNDAFVTGEWGRAHKAEGKVRLLADPTGAFGKETDLLLDDSLVSIFGNRRLKRFSMVVQDGIVKALNVEPDGTGLTCSLAPNIISQL
Experiment I B-oAβ1-42/B Ratio: 12.23

Reference: article PMC5505701, “Somatostatin binds to the human amyloid β peptide and favors the formation of distinct oligomers” (eLife, 2017)
